The supplement of paper PMC12632987
Over roughly 4,500 sequences, “median log2 fold change of GCK-ALFA target abundance (FLAG IP / Myc IP barcode read proportion)” has its median near 0.078; the lowest 2% begin near -0.6. Some of the results follow.

B1: GBRAP_52_6315 (protein)
chain: MREEMLAHAQRLLELALAGKREELRAEARELVRSLSDEELLALAEALAELAKTANEEELDAIAEMVEILEEVMEEEGVDERVISEMLGIVTTALYEKELA
B2: GBRAP_128_3338 (protein)
chain: VDEERLKEVEELVEKIIKADDETAKKLAEELAELLVTLSLEEVEAAVEIIRKHIPKLTAKQLDILAEELEKKLPEFSPEKQLIISDLIVDLLNASVEKEE
B3: GBRAP_11_2692 (protein)
chain: KKEKLKKAAELAEKLAEVLERLLEEGVDNEELLEEAEKLLEELEELTKEYGDEGDRKLVEILREEWEEALEDPENAEEHVRHALAIARVLSGNYLLKIEE
B4: GBRAP_80_6820 (protein)
chain: MEEEIEAHLKEIAEIDPELAEVVARAVKIAKELGVPLEEIARLVKALAELAKLDLERARELAERLLKELEKYKAAGDREGALAEVVDATSEALLEVEKLE
B5: GBRAP_125_3033 (protein)
chain: SEEELKEALALIAKRLGLSDDDVAELVALARAHGIKGAMIALALAEGNEELADLLEKLTEEEVKEVALRLAEYLKENPDLTPEEVLEKLLEIAKEAVAKS
B6: GBRAP_184_5251 (protein)
chain: MNAFIELKVNSKEDIPKAVAEFEEFLKDHKDTVYVLLDAKNLSSEEKVELIRKIGEAAKKAGVKRLIIDILEEVDEETADKLVEAADELGIQLVLPLKEE
B7: GBRAP_80_6750 (protein)
chain: DLAALEAALDRIAALDPELGAALRAVFARLREAGVDVRVLRRTAEALLELAELDLEKARELARRLIAEATAALEAGDLEGATGLLVEAESEALLAVEELE
B8: GBRAP_186_5392 (protein)
chain: EEEEEEEEELLARLEAEYDVVIVVYLDESDSLEKKKATMDREVEAAEALARETGKRVAVLFVATADKETGEELRAHAAALDAEAAARSGVAVALHYREKP
B9: GBRAP_160_4521 (protein)
chain: SAALERAKKLLREAAERAIEMVKGETAEQRAVIVSGEFGSLAMEFAEDERFSDEMVDVVLEAEDELVDTILANPDLTDEELAKLIREAVERTEKELEKLA
B10: GBRAP_160_4420 (protein)
chain: MELIKEVEEILDETKELVVELIEEGEREEAIAALKVGAGEILLLLDEDESVSEEAREEVDKVLEETIKTFEENKDFTPEEVAELLDEAKKKILEILKKYS
B11: GBRAP_184_5164 (protein)
chain: KVLEETLKASNLAEAKEKLAKIRAAAAKTKAPLYVILELEKPEKEILKTIFAELGAILAEGLATSVTLELTSDLTEEQIDFAIKEADEAGVRLVLAIPDE
B12: GBRAP_160_4737 (protein)
chain: EEHIEELVERARKELLEALELSEGESKEEKEAIFRGAAGEVLMDFMEDPRLSDEMEDAAAEILDELVAELVAAYDASKEEKRAIVDRKVEELRDRLLALA
B13: GBRAP_128_3322 (protein)
chain: MDEARLAEAEALARAMVKASVEEARELTRRLVALLATATPEERERIAEIAEEEFKKLSAEKLEAVAETLRAERPRLDPETAEVVAGLEVEALNLAEEKEE
B14: GBRAP_125_3020 (protein)
chain: SDEEIVEDLGAIAKALGYSEEDVEEIKELARKHGIKGTLIAIALAEGWEELAELLEKLSEEEVKEVVRELAAWLKAHPDATPEEVKAKLLELAKKAVAEK
B15: GBRAP_160_4603 (protein)
chain: SAEVEELIKEIQEIFDEALELTEGESPENRLVILSVAFGEILLLLEESPIVSDETLEYADEVLDEVLAWLKANPEASLEEIRAKLEEALEKIREKLEKEA
B16: GBRAP_52_6168 (protein)
chain: SEERARELAERLIEAVKAGDEEEVERILEEAARELDDEELVLLLDHVAEAAASLSPEDKERLVEAALRFEDIAVAAGHDEELLSYQVARVAAAAYAALQA
B17: GBRAP_39_5678 (protein)
chain: EEEEENEDTVSYLEGIAAKYLYDTGLSLEEAYKRAKKVLKEEAEKHPELKELLEKLIELADKKGEEAKLALIGIAKLIEEGTPLEEIKEKIEKVIKYFES
B18: GBRAP_160_4694 (protein)
chain: SEKVEKAEKFITEEFDEVVSLFDEVSREELAAAVRVAFGQIILELEELGLLTDEVDEIIDEEEEKIVNAILTDPNLTKEELKKMLEEAKKKIMEEIKKVA
B19: GBRAP_82_6867 (protein)
chain: KKVIAVEVVSMEPLTPEQLAKANKVAEELKKRAEEKGIELHVIISDASDESIDEANKKLKELKKKYPDVIVVSVAVNKAEDVPAGLEAGTDVAIDEAESR
B20: GBRAP_160_4593 (protein)
chain: SAALEALLKFIDEEFEEAKKLVVGQTAEERANIVAVTGGRIIMELAENPEASDELEDAVDEEFDELVDYILANPDLTDEEVKELLEETRERVKEAARKYF
B21: GBRAP_128_3505 (protein)
chain: STEEAVEEVRELMERIKEASPEEARELTRRIVELLNSVDDETAEAMVEVILEMLPELSKEHLEVLADTLRELRPTVSPFKANLVAEIEVEALNEALELEE
B22: GBRAP_43_5789 (protein)
chain: MKEIVEGTLDFAFTALETPEITDETKAKIFVDAVEFAIDEGVLTPEKLRELIEALKKSVSPETFAKALEEVLKHAKKAGAPEELIKIIEEALEEAKKEIA
B23: GBRAP_160_4092 (protein)
chain: SEEIEKLIEEIDELRDETKEMIKGESREERATIIRGFGGEVIMLLFESGIVSEEVEDLADELFDELVATVEANPELTEEEIFALIDETVDEIKEAIKEDH
B24: GBRAP_184_5242 (protein)
chain: TVVDREVRASTPEEAKAKLAAVEAEATASGAKVDLFVTLENATKELVETVFAQIKALRDAGLLNSVHVEVDAFADEETKELAFELAHEVGVDALAYNDEG
B25: GBRAP_79_6745 (protein)
chain: GVAEARKALAEALKVVLPELTDEELAAAVADDAVLKALLKRAGISEEMADELLAAIDAIPEEAAELFKKAVERMKGLEPEDKKDVLEATIAAVIYKAEQE
B26: GBRAP_160_4215 (protein)
chain: DEIVEKLVEIAREEFEEALELIEGESEEERRVILDVAVGNVILEASEIPGVTDEMEETVDRMSEELARELLEAAGESEEERRALIEERTEELRKELKKLA
B27: GBRAP_83_6909 (protein)
chain: KEKVAVATTGDHIEEAVDAVIDLTKEEGYEVDLEILTTREDRERVLEAVRRLAEAGIETEVTVLLFGATEEEAEALLAELRAIAEEHGVNIRIEVILLEE
B28: GBRAP_160_4612 (protein)
chain: SAKQKELIKEVEELFKEAIEMIKGETAEQRAAIVAVTFGEIILEAEELGVLSDESLEKIDEIGDRLVDTILANPDLTDEELAELIEKAREEVIKIIKEDE
B29: GBRAP_52_6350 (protein)
chain: MEEEARKLAEELVELAKEGKEEELRKKAKEIAKTWSEEEIELLFRVLAEMAKTASPEDAEAILYVAEVLADELIEAGRDEYFASALLADVAKAVYENLQK

Target: GABARAP, O95166
Assay: median log2 fold change of GCK-ALFA target abundance (FLAG IP / Myc IP barcode read proportion) (log2 ratio); each designed protein is fused to an ALFA-tag nanobody in HEK293 cells to bring the named protein to FLAG-tagged glucokinase (GCK); Myc marks an untargeted standard; higher = target protein stabilised (more abundant)
Settings: target protein: 3xFLAG-MCP-GCK-ALFA reporter; HEK293 landing pad (RPLP)
Procedure, shortened: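 An ALFA-nanobody-fused binder library was recombined into HEK293 landing-pad cells and induced with 2 μg mL^−1 doxycycline. Cells were transfected with a plasmid expressing a FLAG-tagged target and a Myc-tagged standard. After 48 h, lysates underwent anti-FLAG and anti-Myc immunoprecipitation, and circular RNA barcodes were reverse transcribed, amplified and sequenced. Target abundance is the per-binder median log2 ratio of FLAG to Myc barcode read proportions. Barcodes needed ≥10^−7 proportion in both replicates, binders ≥3 barcodes per replicate, and a 10^−6 pseudocount was added; the two replicates were pooled.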

Sequence of GABARAP, O95166 (O95166 whole entry, the tested form may be a part): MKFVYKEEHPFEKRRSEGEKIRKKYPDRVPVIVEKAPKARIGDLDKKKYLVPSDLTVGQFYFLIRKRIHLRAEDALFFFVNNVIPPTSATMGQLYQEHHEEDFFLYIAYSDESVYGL

Row | Binder | median log2 fold change
1 | B1 | -0.0843
2 | B2 | 0.236
3 | B3 | -0.0509
4 | B4 | 0.283
5 | B5 | 0.169
6 | B6 | 0.0809
7 | B7 | 0.21
8 | B8 | 0.12
9 | B9 | -0.0233
10 | B10 | 0.245
11 | B11 | 0.164
12 | B12 | 0.233
13 | B13 | 0.326
14 | B14 | -0.259
15 | B15 | -0.235
16 | B16 | 0.0856
17 | B17 | 0.102
18 | B18 | -0.117
19 | B19 | 0.142
20 | B20 | -0.0368
21 | B21 | -0.0604
22 | B22 | 0.0692
23 | B23 | -0.649
24 | B24 | 0.242
25 | B25 | 0.189
26 | B26 | -0.331
27 | B27 | 0.0247
28 | B28 | -0.181
29 | B29 | -0.137
